Here are results for 14 molecules from article PMC12136788.

Sequences and labels used below:
B1: chr8:17156679:17156680:-_ENSG00000003987_ENST00000180173|hu_hu|FALSE|FALSE (ssRNA)
RNA: GGGAGUUCUACAGUCCGACGAUCAUACUUAAAUUCAUAUGUAAGACCAGGAGAAUGAAUGUUGCUUCUACCUCGUUAGCUAUUAAAUCAGUGUUAGAGAAAAAGUGAGAUACAAGGUUUAGCAUUUUUAAAUAAUGAGGAGAACAACAGAGGAUUGAGCAUCA
B2: chr4:144460044:144460045:+_ENSG00000153147_ENST00000283131|hu_mus|hu_hu_hu_mus_False|8_28 (ssRNA)
RNA: GGGAGUUCUACAGUCCGACGAUCACGGUCCAUAGCCUGAAGAUCAACUUGCGGAUUCCAAUCUGAGUCAUAUAAAAUGACUACAUCAGCAGUUGCAAGAUUGAUGCCAAGACCACCAGCACGUGUGCUUAACAUGAAUACAAACAACAGAGGAUUGAGCAUCA
B3: chr2:198351390:198351391:-_ENSG00000144381_ENST00000345042|hu_hu|hu_hu_hu_mus_False|18_78 (ssRNA)
RNA: GGGAGUUCUACAGUCCGACGAUCUCAUUCCCACCCUCCACAGAAAGGCUGCUUCUGUUCUCAUCUGUGGUGACACAGCGCUACAGUCCUGAUGCUCACAGAACAGUAGAGAUGCCUCCUCAGUGAUAGUUGAAAGCAGGACACCAACAGAGGAUUGAGCAUCA
B4: chr7:151048522:151048523:+_ENSG00000013374_ENST00000566856|hu_mus|hu_hu_hu_mus_True|28_88 (ssRNA)
RNA: GGGAGUUCUACAGUCCGACGAUCCUGUUUCUUAUUUAUUACGAUCUUGAUAUAAUUUUCUUGAAAUCCGAAAGUUUCAGCUAUUUGACACCUCAGGUCUCUACCAGUGAUGUGCAAGCGGGUCUCCAACAAGCUUUUCUUAUCCAACAGAGGAUUGAGCAUCA
B5: chr6:150114741:150114742:+_ENSG00000120265_ENST00000367380|hu_hu|FALSE|FALSE (ssRNA)
RNA: GGGAGUUCUACAGUCCGACGAUCCCCUGAAGACAGAAGUGUUGGAUCGUCCUUCCUGACAUUAUUUACUGAGUCAUCUACUAGCUCUUUAAUGUGAUCAAUUCCUAUGACUUUUCCAGUACAUCCAACCAUACGUGCAAAACACAACAGAGGAUUGAGCAUCA
B6: chr17:64801638:64801639:+_ENSG00000154229_ENST00000413366|hu_mus|hu_hu_hu_mus_False|18_38 (ssRNA)
RNA: GGGAGUUCUACAGUCCGACGAUCUAUAUAUAUAUAUACAUAUGUACACAUAUAUAGUAAAACCCUAGUUAAACGUGUAAAGUAGCCAUUCAUUUUUGAAAUUUUAUCUACAUUAAAAAAGUAAUCUAUCUGAUAGAGUGCCAGCAACAGAGGAUUGAGCAUCA
B7: chr15:39702511:39702512:-_ENSMUSG00000022305_ENSMUST00000022916|mus_mus|FALSE|FALSE (ssRNA)
RNA: GGGAGUUCUACAGUCCGACGAUCUUUUCUUCAAGAUUAUAGCACUGACCCCCUCCCCCAAGAAUAAAAUAUCCUGGAAAAAAAUCACUCUCACAAUAAUGCAGUUUUUAAAUACAACAAAUAAAUAUGAAACCAGCAAAGCAACAACAGAGGAUUGAGCAUCA
B8: chr3:148802587:148802588:-_ENSG00000071794_ENST00000310053|hu_mus|hu_hu_hu_mus_False|38_48 (ssRNA)
RNA: GGGAGUUCUACAGUCCGACGAUCUCCAACAACUUGUCCUCUCAUAGUUCCAAAUAAAACCAAAUCUUGCUCUUCAUCACUCGUUAGAAAGUCAUCUGGAGGGAUAAUGUCUUGGAAUUCAAAAUGUGGCAAGAAAGUUGAGUACAACAGAGGAUUGAGCAUCA
B9: chr6:40197388:40197389:+_ENSMUSG00000057716_ENSMUST00000061740|mus_mus|mus_mus_mus_hu_False|38_78 (ssRNA)
RNA: GGGAGUUCUACAGUCCGACGAUCGAGACACUGGGGUGGAUUUAUUCCACCUCUGUUUGCUAGCCUCCCACUAAGACUGUUAUUUUGGGAUUCAUGGCCUUGAAGAUCAAGAGGGAAAGGAAGAGGAUGGAAAGAGUCAAGAGUCAACAGAGGAUUGAGCAUCA
B10: 31462005_31462125_6649_3pUTR_ENSMUSG00000025609_ENSMUST00000026699|mouse|control|control (ssRNA)
RNA: GGGAGUUCUACAGUCCGACGAUCUGAAAAUUGGUGCUUGGCUAAAACACAAUACAAAGAUAGGGUGACGGCAAAUUUAAGUGUGGUGGAGCACUGGUCUCCAUGAGCUGGCUCUCUUCAGAACCUGGAUACAGCUAACAGUUCCAACAGAGGAUUGAGCAUCA
B11: chr16:94664741:94664742:+_ENSMUSG00000040785_ENSMUST00000117648|mus_hu|mus_mus_mus_hu_False|18_18 (ssRNA)
RNA: GGGAGUUCUACAGUCCGACGAUCUGGUACUGAUCUUGGUAGCUGAUAUUCAGGAGAAAGGCUGGCCAAGGGUGUAUAUAUGCUGGUGUACUGGGGCAAACCUGGUAACACGUUUAUGUACGCUGGUGGUGUCUGGGUGAUAUCCAACAGAGGAUUGAGCAUCA
B12: 52824636_52830982_63_CDS_ENSG00000101132_ENST00000441080|human|control|control (ssRNA)
RNA: GGGAGUUCUACAGUCCGACGAUCUUCUUCCUUCAGCUCUGUGAUUCUACUUGUAUUCCGUGCAAAUUUGUUUAUCUUUUGUUGAUCUUCGAAAGUAACAUUGACAUCUUCUGCAGCCGCCUUCUUCAUGGUGGCCGCCAUCUUCAACAGAGGAUUGAGCAUCA
B13: chr4:115894766:115894767:+_ENSMUSG00000028698_ENSMUST00000030464|mus_hu|mus_mus_mus_hu_True|78_88 (ssRNA)
RNA: GGGAGUUCUACAGUCCGACGAUCUUCCACACGGAAAUGUACUUCGGGUUUCCAACGGCCAGUACAAAGUCCGGCCAAACUACCCGAACAGGGUCCUCCCCCUCUCUCCUACAGAACACAACAAAAUGCCCCCGAACUUUCAAGCAACAGAGGAUUGAGCAUCA
B14: chr10:57235669:57235670:-_ENSMUSG00000019877_ENSMUST00000020027|mus_mus|FALSE|FALSE (ssRNA)
RNA: GGGAGUUCUACAGUCCGACGAUCUUCAGAAUUGUGAAGCAGUAUUAACACAGAGUAAGGCUGGAACAUGAAGAUGAACUGCUAUAGUACAUUUGCACAAUAAAUACUUUUAAAGACACAUGUAGUUCUUUAAAAGCUAGAUACCAACAGAGGAUUGAGCAUCA

The other results are listed elsewhere or left out.

The target in this assay is T1, UNK ZnF1-3 (human, UniProt Q9C0B0 31-174).
T1 sequence: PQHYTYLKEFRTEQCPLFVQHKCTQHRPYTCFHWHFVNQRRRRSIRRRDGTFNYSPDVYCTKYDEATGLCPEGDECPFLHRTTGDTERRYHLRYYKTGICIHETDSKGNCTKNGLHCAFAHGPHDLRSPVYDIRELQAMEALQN
Put plainly: nsRBNS (natural sequence RNA bind-n-seq); RBNS binding buffer (assumed for nsRBNS): 25 mM Tris pH 7.5, 150 mM KCl, 3 mM MgCl2, 0.01% Triton X-100, 500 ug/ml BSA, 20 U/ml SUPERase-In, 4 C; UNK is unkempt and MSI1 is Musashi-1; names of the RNAs are library labels; protein concentration not given here; high values mean tight binding.
With B1, the binding signal amounted to 1.33 enrichment R.
Take B2: the binding signal is 1.03 enrichment R.
Molecule B3 gave a binding signal of 1.19 enrichment R.
For the molecule B4, the binding signal amounted to 0.955 enrichment R.
To B5 belongs 1.05 enrichment R.
The molecule B6 registered a binding signal of 1.4 enrichment R.
With B7, the binding signal came to 3.13 enrichment R.
With B8, the binding signal was determined as 1.27 enrichment R.
As to B9, the binding signal is 1.25 enrichment R.
For the molecule B10, the binding signal turned out to be 1.05 enrichment R.
For B11, the binding signal was 0.977 enrichment R.
Molecule B12 returned a binding signal of 0.371 enrichment R.
B13: the binding signal was 0.948 enrichment R.
Molecule B14 yielded a binding signal of 1.12 enrichment R.
